Inconclusive means that the source gave no clear call. Such entries were picked first, then a sample of the others. A call without a number means that no potency is given here. Potencies beside an inconclusive call are fits to weak or partial responses and may not hold up. The source made the active and inactive calls. Calls come from the whole dose curve; as a rule, active = well fitted activation curve with a large enough effect in the signal ratio in the repeat runs, with a control signal flat (not every such curve was filed as active); inconclusive = weak or mixed curves; inactive = flat fitted curve, though single readings scatter; the % refers to the signal ratio.
Assay: qHTS assay for small molecule activators of the heat shock response signaling pathway (AID 743210)
Conditions: HeLa HSE-bla reporter, beta-lactamase ratio, 5 h; activation: at 62.6 µM (top of the series) unless noted
Description: U.S. Tox21 Program National Center for Advancing Translational Sciences [NCATS] NIH Chemical Genomics Center [NCGC] U.S. Environmental Protection Agency [EPA] National Institutes of Environmental Health Sciences [NIEHS] National Toxicology Program [NTP] U.S. Food and Drug Administration [FDA] Tox21 Assay Overview: Various chemicals, environmental and physiological stress conditions may lead to the activation of heat shock response/ unfolded protein response (HSR/UPR). There are three heat shock transcription factors (HSFs) (HSF-1, -2, and -4) mediating transcriptional regulation of the human HSR. To identify the compounds that activate HSR signaling, HSE-bla HeLa cell line (Invitrogen, Carlsbad, CA, USA) containing a beta-lactamase reporter gene under the control of the heat shock response elements was used to screen the Tox21 10K compound library.
Tox21 Assay Protocol Summary: The CellSensor HSE-bla HeLa cells (Invitrogen, Carlsbad, CA, USA) were dispensed at 1500 cells/6uL/well into 1536-well black wall/clear bottom plates using a Multidrop combi (Thermo Fisher Scientific, Waltham, MA) dispenser. After the assay plates were incubated at 37 C and 5% CO2 overnight, 23 nL of compounds dissolved in DMSO, positive controls or DMSO only was transferred to the assay plate by a Pintool station (Kalypsys, San Diego, CA). The plates were incubated at 37 C for 5 h. After 1 uL of LiveBLAzerTM B/G FRET substrate was added using a Flying Reagent Dispenser (Beckman Coulter, Indianapolis, IN, USA), the plates were incubated at room temperature for 2.5 h, and fluorescence intensity was measured by an Envision plate reader (PerkinElmer, Shelton, CT).
Potency is the fitted concentration of half-maximal effect; tags give direction and shape of the fitted curve or compound fluorescence and quenching.

| Compound | Potency | activation |
| --- | --- | --- |
| CCCCCCCCO | inactive |  |
| Cc1ccccc1CCO | inactive |  |
| COC(=O)CC(C)=O | inactive |  |
| CCC(C(=O)NC(=O)NC(C)=O)c1ccccc1 (stereo not given) | inconclusive: 7.5 µM [falling, single point] |  |
| CCCCCCCCOCCC#N | inactive |  |
| CC(C)CCCC(C)N (stereo not given) | inactive |  |
| Cc1nccn1CC1CCc2c(c3ccccc3n2C)C1=O (stereo not given) | inactive |  |
| C=C(C)C(=O)OCCOP(=O)(O)OCCOC(=O)C(=C)C | inactive |  |
| O=S(=O)(O)c1cc(O)c2ccc(Nc3ccccc3)cc2c1 | inactive |  |
| CCC(C(=O)OCCOCCN(CC)CC)c1ccccc1 (stereo not given) | inactive |  |
| CO[Si](C)(OC)c1ccccc1 | inactive |  |
| CCOCC(C)O (stereo not given) | inactive |  |
| FC(F)(F)C(F)(F)C(F)(F)C(F)(F)C(F)(F)C(F)(F)C(F)(F)C(F)(F)C(F)(F)C(F)(F)F |  | inactive: 2.05% [at 5.95 µM] |
| CCCCC(CC)C(=O)OC(C)C (stereo not given) | inactive |  |
| CCOc1ccccc1O | inactive |  |
| CC(C)(C)C(=O)/C=C/c1ccc(Cl)cc1 | inconclusive: 65.3 µM [activator] |  |
| COc1ccc(OC)c(OC)c1 | inconclusive: 24.5 µM [rising, partial curve, poor fit] |  |
| COP(=O)(OC)OC(c1ccc(Cl)cc1)P(=O)(OC)OC (stereo not given) | inconclusive: 33.5 µM [rising, partial curve, poor fit] |  |
| CCOC(=O)Nc1ccc2c(c1)N(C(=O)CCN1CCOCC1)c1ccccc1S2 | inactive |  |
| c1ccc2c(c1)[nH]c1ccccc12 | inconclusive: 61.6 µM [activator] |  |

| Compound | Potency | activation |
| --- | --- | --- |
| C=C(C)C(=O)OCCNC(C)(C)C | inactive |  |
| CC(=O)OC1CCCCC1C(C)(C)C (stereo not given) | inactive |  |
| CC1(c2ccccc2)OC(C(=O)O)=CC1=O (stereo not given) | inconclusive: 0.211 µM [rising, full curve] |  |
| C=C(C)C(=O)NCCC[N+](C)(C)C | inactive |  |
| [O-][n+]1ccc(Cl)cc1 | inactive |  |
| O=C(O)c1snc(Cl)c1Cl |  | inconclusive: 6.93% |
| O=C(O)CCC(=O)Nc1ccc(S(=O)(=O)Nc2nccs2)cc1 | inactive |  |
| CN1CCN(c2cc3c(nn2)Oc2ccccc2N3C)CC1 | inconclusive: 0.116 µM [rising, full curve] |  |
| COc1cc(OC)nc(O[C@H](C(=O)O)C(OC)(c2ccccc2)c2ccccc2)n1 | inconclusive: 35.5 µM [activator] |  |
| O=C(O)CCC(=O)O |  | inconclusive: -0.248% [at 81.1 µM] |
| CSc1nc(NC2CC2)nc(NC(C)(C)C)n1 | inconclusive: 58.2 µM [activator] |  |
| NC12CC3CC(CC(C3)C1)C2 | inconclusive: 13.3 µM [activator] |  |
| N=C(N)N1CCc2ccccc2C1 |  | inactive: -0.5% [at 5.95 µM] |
| CCCC(C)C(O)CC (stereo not given) | inconclusive: 54.9 µM [single point] |  |
| CC(CSC(=O)c1ccccc1)C(=O)N1C[C@@H](Sc2ccccc2)C[C@H]1C(=O)O (stereo not given in full) | inactive |  |
| C=Cc1ccc(C(C)(C)C)cc1 | inactive |  |
| C=CC(C)=CCC=C(C)C |  | inconclusive: 7.33% |
| CC(C)=CCC/C(C)=C/C#N | inconclusive: 63.9 µM [rising, partial curve, poor fit] |  |
| COC(OC)(C(=O)c1ccccc1)c1ccccc1 | inactive |  |
| CC1(C)OC(=O)Nc2ccc(Br)cc21 | inactive |  |

Source: PubChem BioAssay (Tox21)
